Assay results reported in the supplement of paper PMC4967469.

How the values were obtained:
Experiment in all cases: Viability of human cancer cell lines after 72 h of drug (GDSC screen)
Z-LLNle-CHO = compound: CCCC[C@@H](C=O)NC(=O)[C@H](CC(C)C)NC(=O)[C@H](CC(C)C)NC(=O)OCc1ccccc1 [Z-LLNle-CHO]; details: top dose 2.56 µM; top dose inferred
Description: (§1)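 Human cancer cell lines in 384-well plates, medium with 10% serum, drug for 72 h over a 256-fold dose range (nine 2-fold or five 4-fold steps up to the top dose). Adherent lines were fixed and stained with the nucleic acid dye Syto60, suspension lines read with resazurin; signal relative to control wells, capped at 0 and 100%. One two-parameter sigmoid per drug and line, fitted in a mixed model over all curves with the slope shared within a line.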

IPA-3 = compound: Oc1ccc2ccccc2c1SSc1c(O)ccc2ccccc12 [IPA-3]; details: top dose 32 µM; top dose inferred
Description: as §1

Tubastatin A = compound: CN1CCc2c(c3ccccc3n2Cc2ccc(C(=O)NO)cc2)C1 [Tubastatin A]; details: top dose 20 µM
Description: as §1

Rapamycin = compound: CO[C@H]1C[C@@H]2CC[C@@H](C)[C@@](O)(O2)C(=O)C(=O)N2CCCC[C@H]2C(=O)O[C@H]([C@H](C)C[C@@H]2CC[C@@H](O)[C@H](OC)C2)CC(=O)[C@H](C)/C=C(\C)[C@@H](O)[C@@H](OC)C(=O)[C@H](C)C[C@H](C)/C=C/C=C/C=C/1C [Rapamycin]; details: top dose 0.1 µM; top dose inferred
Description: as §1

ZG-10 = compound: CN(C)C/C=C/C(=O)Nc1ccc(C(=O)Nc2cccc(Nc3nccc(-c4cccnc4)n3)c2)cc1 [ZG-10]; details: top dose 10 µM; top dose inferred
Description: as §1

XL-880 = compound: COc1cc2c(Oc3ccc(NC(=O)C4(C(=O)Nc5ccc(F)cc5)CC4)cc3F)ccnc2cc1OCCCN1CCOCC1 [XL-880]; details: top dose 5.12 µM; top dose inferred
Description: as §1

JW-7-52-1 = compound: CCC(=O)N1CCN(c2ccc(-n3c(=O)ccc4cnc5ccc(-c6cnc7ccccc7c6)cc5c43)cc2C(F)(F)F)CC1 [JW-7-52-1]; details: top dose 1.2 µM; top dose inferred
Description: as §1

CI-1040 = compound: O=C(NOCC1CC1)c1ccc(F)c(F)c1Nc1ccc(I)cc1Cl [CI-1040]; details: top dose 10 µM; top dose inferred
Description: as §1

Temozolomide = compound: Cn1nnc2c(C(N)=O)ncn2c1=O [Temozolomide]; details: top dose 30 µM
Description: as §1

Cell Line: NOMO-1 (acute myeloid leukaemia, suspension)
- AUC (Z-LLNle-CHO): 0.891
- IC50 (Z-LLNle-CHO): > 2560 nM
- AUC (IPA-3): 0.717
- IC50 (IPA-3): 9040 nM
- AUC (Tubastatin A): 0.846
- IC50 (Tubastatin A): 17600 nM
- AUC (Rapamycin): 0.847
- IC50 (Rapamycin): 89 nM
- AUC (ZG-10): 0.608
- IC50 (ZG-10): 1290 nM
- AUC (XL-880): 0.491
- IC50 (XL-880): 301 nM
- AUC (JW-7-52-1): 0.735
- IC50 (JW-7-52-1): 390 nM
- AUC (CI-1040): 0.287
- IC50 (CI-1040): 142 nM
- AUC (Temozolomide): 0.98
- IC50 (Temozolomide): > 30000 nM

The IC50 comes from the fitted curve, where viability falls to half of the control; fits outside the tested doses are given as limits. The AUC spans the tested range (256-fold, ending at the top dose) of the same fit; values near 1 show little effect. For part of these data: Any top dose called inferred was calculated from the reported fits.
